Test results taken from PubChem BioAssay AID504339 (National Center for Advancing Translational Sciences (NCATS), 2011).
Where “and” joins values, the source holds several entries; their conditions need not be identical. Identical values can stand only once. Out of some 390,000 compounds screened, about 17,000 (4.4%) were called active. This list was built around the results that the source calls inconclusive (neither active nor inactive); the mix of calls is not that of the screen. The call rests on the fitted dose curve; in most records, active means well fitted inhibition curve with a large enough effect; inconclusive means small, poorly fitted or top-dose-only effect; inactive means no such curve, though single readings can be large or run the other way. A potency beside an inconclusive call is a rough fit, not a confirmed value.

target: Lysine-specific demethylase 4A (Homo sapiens) (UniProt O75164); assay: qHTS Assay for Inhibitors of JMJD2A-Tudor Domain; conditions: AlphaScreen JMJD2A-Tudor / H3K4me3 peptide binding; activity change, negative = inhibition: at 114 µM (top of the series); further: nearly all actives have a fitted effect of over 50% in size
Chain of UniProt O75164 (O75164 whole entry, looked up, the tested form may be a part): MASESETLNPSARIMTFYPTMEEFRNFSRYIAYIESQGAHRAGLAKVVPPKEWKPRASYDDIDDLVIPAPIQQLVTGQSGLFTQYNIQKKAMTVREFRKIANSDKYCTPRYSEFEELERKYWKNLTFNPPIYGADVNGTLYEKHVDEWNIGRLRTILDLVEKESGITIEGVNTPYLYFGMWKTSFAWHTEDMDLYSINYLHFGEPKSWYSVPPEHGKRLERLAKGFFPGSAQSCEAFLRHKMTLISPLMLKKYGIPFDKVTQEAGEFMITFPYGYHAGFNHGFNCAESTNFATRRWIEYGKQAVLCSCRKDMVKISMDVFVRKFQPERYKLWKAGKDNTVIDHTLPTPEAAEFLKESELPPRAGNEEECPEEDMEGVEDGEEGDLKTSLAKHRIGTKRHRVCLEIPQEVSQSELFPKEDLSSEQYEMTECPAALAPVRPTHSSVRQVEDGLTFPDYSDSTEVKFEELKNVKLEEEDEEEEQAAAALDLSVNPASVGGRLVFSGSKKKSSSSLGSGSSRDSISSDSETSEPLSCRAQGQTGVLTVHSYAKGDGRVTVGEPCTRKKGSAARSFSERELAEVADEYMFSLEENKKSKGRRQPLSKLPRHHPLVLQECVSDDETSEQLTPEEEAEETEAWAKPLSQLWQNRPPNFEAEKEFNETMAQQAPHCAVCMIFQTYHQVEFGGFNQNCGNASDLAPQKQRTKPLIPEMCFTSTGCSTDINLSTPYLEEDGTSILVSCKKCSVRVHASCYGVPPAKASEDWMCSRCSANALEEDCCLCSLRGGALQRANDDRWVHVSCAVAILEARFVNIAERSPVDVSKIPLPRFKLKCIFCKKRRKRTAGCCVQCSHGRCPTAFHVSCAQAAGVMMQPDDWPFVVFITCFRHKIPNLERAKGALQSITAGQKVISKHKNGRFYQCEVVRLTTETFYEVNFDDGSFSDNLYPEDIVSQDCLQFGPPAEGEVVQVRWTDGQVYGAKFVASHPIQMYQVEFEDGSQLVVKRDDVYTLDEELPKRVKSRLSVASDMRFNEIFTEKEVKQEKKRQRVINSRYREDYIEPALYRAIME
On the % scale 0 is the no-effect control and ±100 the full control effect; potency means the concentration at half of the fitted maximal effect; tags describe the fitted curve by direction and shape.

SMILES | Potency | activity change, negative = inhibition
CCc1cccc(NC(=O)Cn2c(=O)n(Cc3ccccc3)c(=O)c3c(C)c(C(=O)N(C)C)sc32)c1 | inactive | 
Cn1cccc1CC(=O)N/N=C/c1ccc(C(C)(C)C)cc1 | inconclusive: 63.1 µM [inhibitor, partial curve] | 
COc1ccc(C(=O)N2CCC(C(=O)N3CCN(c4ccc(OC)cc4)CC3)CC2)cc1 | inactive | 
CCC[C@@H]1Cc2ccccc2N1C(C)=O | inactive | 
Cc1nc(Nc2ccc(C(=O)O)cc2)nc(Nc2ccc(C(=O)O)cc2)c1[N+](=O)[O-] | inactive | 
CCn1c(SCC(=O)NC(C)c2ccccc2)nc2ccccc21 (centres undefined) | inconclusive: 11.2 µM [inhibitor, partial curve] | 
Cc1ccc(O)c(CN(C)Cc2cc(C)ccc2O)c1 | inconclusive: 44.7 µM [inhibitor, partial curve] | 
COc1ccc(NC(NC(=O)c2ccc(OC)cc2)C(Cl)(Cl)Cl)cc1 (centres undefined) | inconclusive: 50.1 µM [inhibitor, partial curve] | 
C/C(=N\NC(=S)NC1CCCCC1)c1cccs1 | inconclusive: 50.1 µM [inhibitor, partial curve, poor fit] | 
Cc1ccc(N/N=C/c2ccncc2)cc1 | inconclusive: 50.1 µM [inhibitor, partial curve] | 
CC(C)c1ccc2[nH]c(O)c(N=NC(=S)NCCc3ccccc3)c2c1 | inconclusive: 7.94 µM [inhibitor, full curve] | 
Cc1cc(/C=N/NC(N)=S)c(C)n1-c1cccc(Cl)c1 | inconclusive: 56.2 µM [inhibitor, partial curve] | 
O=C(O)C1=CC[C@@H](c2ccc(Cl)cc2)N(S(=O)(=O)c2ccc(Cl)cc2)[C@H]1c1ccc(F)cc1 | inactive | 
CC(=O)c1cccc(NC(=O)C2=CC(c3cccs3)=NS(=O)(=O)N2C)c1 | inconclusive: 50.1 µM [inhibitor, partial curve] | 
Cn1c(=O)cc(SCC(=O)NCCc2ccc(Cl)cc2)c2cc(Cl)ccc21 | inactive | 
COc1ccc(Nc2nc(-c3cccs3)cs2)cc1 | inconclusive: 50.1 µM [inhibitor, partial curve] | 
COC(=O)c1ccc(NC(=O)CSc2nccn2Cc2ccc(Cl)cc2)cc1 | inconclusive: 35.5 µM [inhibitor, partial curve] | 
Cc1noc(C)c1CSCC(=O)Nc1cc(Cl)ccc1N1CCOCC1 | inactive | 
COc1ccc(S(=O)(=O)N(CCCN2CCOCC2)Cc2cccc3ccccc23)cc1 | inconclusive: 56.2 µM [inhibitor, partial curve] | 
O=C(CSC(=S)N1CCOCC1)c1cc(Br)cc(Br)c1O | inconclusive: 3.98 µM [inhibitor, full curve, poor fit] | 
COC(=O)c1cc2oc(C)cc2n1CC(=O)Nc1ccc(OC)c(OC)c1 | inactive | 
O=C(NNC(=S)Nc1ccc(Br)cc1Cl)c1ccncc1 | inconclusive: 56.2 µM [inhibitor, partial curve] | 
O=C(NN=C1CCN(Cc2ccccc2)CC1)c1ccccc1O | inconclusive: 15.8 µM [inhibitor, single point] | 

SMILES | Potency | activity change, negative = inhibition
COc1ccc(-n2c(O)c(/C=N/NS(=O)(=O)c3cccc([N+](=O)[O-])c3)c3ccccc3c2=O)cc1OC | inconclusive: 35.5 µM [inhibitor, single point] | 
Cc1ccc(CN2C(=O)C(=O)c3cc(C)ccc32)cc1 | inconclusive: 25.1 µM [inhibitor, full curve] | 
C/C(=N\NC(=O)c1c(C)nc2ccccn12)c1ccc(O)cc1O | inactive | 
Cc1[nH]c(-c2ccc(F)cc2)cc1C(=O)N1CCN(c2ccccc2F)CC1 | inconclusive: 89.1 µM [inhibitor, partial curve] | 
O=C(O)CCn1cc(/C=C/C(=O)c2ccc(Cl)cc2)c(-c2cccc(Br)c2)n1 | inconclusive: 44.7 µM [inhibitor, partial curve] | 
Cc1ccc(Cc2cnc(N3C(=N)SC(c4ccccc4)C3=O)s2)cc1 (centres undefined) | inconclusive: 50.1 µM [inhibitor, partial curve] | 
Cc1ccc(CN2C(=O)CC(c3ccc(Cl)cc3)c3c(C)nn(-c4nc(C)cc(C)n4)c32)cc1 (centres undefined) | inconclusive: 56.2 µM [inhibitor, partial curve] | 
CCN(Cc1ccc(C#CCCO)cc1)CC1CCCN(CCc2cccc(F)c2)C1 (centres undefined) | inconclusive: 56.2 µM [inhibitor, partial curve] | 
O=c1cc(CO)oc(C(Nc2ccccn2)c2ccccc2Cl)c1O (centres undefined) | active: 28.2 µM | 
O=C(C1CC1)n1cc(C(=S)N2CCOCC2)c2ccccc21 | inactive | 
N#Cc1nc(-c2ccc(OCc3ccccc3Cl)cc2)oc1N1CCC(C(N)=O)CC1 | inactive | 
COc1ccc(S(=O)(=O)N2CCN(Cc3ccccc3[N+](=O)[O-])CC2)cc1 | active: 3.16 µM | 
COc1ccc(CCN2C(=O)c3[nH]nc(-c4ccccc4O)c3C2c2ccc(C)cc2)cc1OC (centres undefined) | inconclusive: 35.5 µM [inhibitor, single point] | 
CCCCn1c(N)c(N(CCC(C)C)C(=O)CSc2nc3ccccc3n2C)c(=O)[nH]c1=O | active: 79.4 µM | 
Cc1cc(O)c(C(c2ccccc2)N2CCN(c3ccccc3F)CC2)c(=O)n1Cc1ccco1 (centres undefined) | inconclusive: 79.4 µM [inhibitor, single point] | 
COC(=O)c1sc(S(=O)(=O)N2CCN(c3ccc(OC)cc3)CC2)c(C(=O)OC)c1C | inconclusive: 12.6 µM [inhibitor, full curve] and inconclusive: 2.82 µM [inhibitor, partial curve] | 
N#C/C(=C\c1ccccc1[N+](=O)[O-])c1nc(C2CC2)cs1 | active: 31.6 µM | 
CN(C)c1ccc(NC(=O)CCn2c(=S)oc3ccccc32)cc1 | inconclusive: 50.1 µM [inhibitor, partial curve] | 
Cc1cc(NC(=O)c2cc3nc(C4CC4)cc(C(F)(F)F)n3n2)no1 | inactive | 
CCN(CC)S(=O)(=O)c1ccc(O)c(NC(=O)c2cc(-c3cc(OC)c(OC)c(OC)c3)nc3ccccc23)c1 | inconclusive: 56.2 µM [inhibitor, partial curve] | 
CN(C)N1C(N)=C(C#N)C(c2cccs2)C2=C1CCCC2=O (centres undefined) |  | inactive: -13.5% [at 11.4 µM]
NC(=Nc1ccc(N)cc1)C(N)=Nc1ccc(N)cc1 | active: 25.1 µM | 
COc1ccc(NC(=O)CN(C)S(=O)(=O)c2ccc3nc(C)sc3c2)cc1Cl | inactive | 

SMILES | Potency | activity change, negative = inhibition
O=C(COc1ccccc1)NNC1=NS(=O)(=O)c2ccccc21 | inactive | 
Cc1cc(C)cc(-n2c(=O)c3sccc3n(CC(=O)NCc3ccco3)c2=O)c1 | inactive | 
Clc1ccc(OCCCn2cncn2)cc1Cl | active: 8.91 µM | 
Cn1c(Oc2cccc(Cl)c2)nc2c1c(=O)n(Cc1ccccc1Cl)c(=O)n2C | inactive | 
Cc1cccc(Nc2nnc(-c3ccc(C)c(S(=O)(=O)N4CCOCC4)c3)c3ccccc23)c1 | inactive | 
Cc1cccc(N2CCN(Cc3oc(CO)cc(=O)c3O)CC2)c1C | inconclusive: 89.1 µM [inhibitor, single point] | 
Cc1ccc(NS(=O)(=O)c2ccc3[nH]c4c(c3c2)CCCCCC4)cc1C | inconclusive: 63.1 µM [inhibitor, partial curve, poor fit] | 
CCCCN(CCCNC(=O)C1CCN(S(=O)(=O)N2CCOCC2)CC1)c1ccccc1 | inconclusive: 79.4 µM [inhibitor, single point] | 
COc1ccc(NC(=O)Cc2coc3cc(C)c(C(C)C)cc23)cc1S(=O)(=O)N1CCOCC1 | inactive | 
COc1cccc(NC(=S)NCCc2ccccn2)c1 | inactive | 
CCN(c1ccccc1)S(=O)(=O)c1cc(C(=O)NCC(c2ccco2)N2CCCCC2)ccc1C (centres undefined) | inconclusive: 39.8 µM [inhibitor, partial curve] | 
CCOc1ccccc1CNC(=O)CCCn1c(=O)c2cccn2c2ccc(F)cc21 | inactive | 
COc1ccccc1N1CCN(/N=C/c2ccc(OC)c(OC)c2OC)CC1 | inconclusive: 44.7 µM [inhibitor, partial curve] | 
Cc1nc(N)sc1-c1csc(Nc2ccccc2)n1 | inconclusive: 56.2 µM [inhibitor, partial curve] | 
Cc1cc2c(cc(C(=O)OC(C(=O)NCc3ccco3)C(C)C)n2C)o1 (centres undefined) | inconclusive: 39.8 µM [inhibitor, full curve] | 
C/C(=N\NC(=S)NC1CCCCC1)c1c(F)cccc1F | inconclusive: 63.1 µM [inhibitor, partial curve, poor fit] | 
CC(C)c1nc(SCC(=O)Nc2ccc(N(C)C)cc2)c2ccccc2n1 | inconclusive: 22.4 µM [inhibitor, full curve] | 
COc1ccccc1OCC(=O)N/N=C/C=C/c1ccc([N+](=O)[O-])o1 | inconclusive: 100 µM [inhibitor, single point] | 
CCOC(=O)c1ccc(NC(=O)c2c(NCc3ccc(OC)c(OC)c3OC)sc3c2CCC(C)C3)cc1 (centres undefined) | inconclusive: 79.4 µM [inhibitor, partial curve] | 
CCCN(C(=O)c1c(-c2ccccc2)noc1C)c1c(N)n(Cc2ccccc2)c(=O)[nH]c1=O | inactive | 
CCN(CC(=O)NC(C)C)C(=O)c1ccc(S(=O)(=O)N(C)c2ccccc2OC)cc1 | inconclusive: 3.55 µM [inhibitor, single point] | 
O=C(c1cc(C(=O)N2CCN(c3ccc(F)cc3)CC2)cc([N+](=O)[O-])c1)N1CCN(c2ccc(F)cc2)CC1 | inconclusive: 11.2 µM [inhibitor, full curve] | 
CC(C)NC(=O)C1CCN(Cc2cccc(Oc3ccccc3)c2)CC1 | active: 22.4 µM | 
